PubChem BioAssay AID488969 (Vanderbilt High Throughput Screening Facility, 2010)
The full ranking holds about 110,000 compounds; the median of “z-score” is about -0.1, and the highest 2% start at about 2. Some of the results follow. Active and inactive are the calls of the source.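 How the source made its calls: active means z-score in the third read window above 3 or below -3; inactive means the rest.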

target: Metabotropic glutamate receptor 8 (Rattus norvegicus) (UniProt P70579); test: mGluR8 Gi/Go-coupled signaling modulation – cell-based, rat, thallium flux, HTS, primary screen (AID 488969); conditions: HEK293 rat mGluR8, GIRK (G protein-gated inwardly rectifying potassium channel) thallium flux, FluoZin2; at 10 µM; stronger effect = higher value; submaximal glutamate (EC20) added with thallium
Sequence of UniProt P70579 (P70579 whole entry, looked up): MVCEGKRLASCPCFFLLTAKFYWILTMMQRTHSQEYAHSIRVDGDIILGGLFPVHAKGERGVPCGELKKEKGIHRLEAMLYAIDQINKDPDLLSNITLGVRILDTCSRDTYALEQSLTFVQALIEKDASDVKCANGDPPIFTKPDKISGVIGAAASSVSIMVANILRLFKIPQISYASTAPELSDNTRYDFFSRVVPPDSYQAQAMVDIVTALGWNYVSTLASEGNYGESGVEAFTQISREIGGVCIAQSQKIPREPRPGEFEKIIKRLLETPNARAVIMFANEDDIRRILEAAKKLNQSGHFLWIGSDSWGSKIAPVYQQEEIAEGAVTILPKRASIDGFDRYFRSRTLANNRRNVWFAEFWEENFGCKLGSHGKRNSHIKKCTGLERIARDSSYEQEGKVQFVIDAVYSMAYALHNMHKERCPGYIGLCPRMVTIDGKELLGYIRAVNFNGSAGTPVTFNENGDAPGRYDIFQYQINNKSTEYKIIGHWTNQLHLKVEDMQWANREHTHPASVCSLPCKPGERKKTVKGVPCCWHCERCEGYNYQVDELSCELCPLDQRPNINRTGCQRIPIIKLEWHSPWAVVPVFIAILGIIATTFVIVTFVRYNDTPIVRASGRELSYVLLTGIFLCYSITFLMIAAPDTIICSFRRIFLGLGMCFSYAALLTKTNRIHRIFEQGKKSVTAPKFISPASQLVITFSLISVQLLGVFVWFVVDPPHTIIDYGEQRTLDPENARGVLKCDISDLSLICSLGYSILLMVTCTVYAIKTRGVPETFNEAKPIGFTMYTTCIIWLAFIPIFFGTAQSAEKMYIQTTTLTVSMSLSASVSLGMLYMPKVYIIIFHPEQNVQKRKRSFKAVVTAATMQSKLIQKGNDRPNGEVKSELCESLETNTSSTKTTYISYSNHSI

| Structure (SMILES) | z-score |
| --- | --- |
| Cc1ccccc1NS(=O)(=O)c1cc(S(C)(=O)=O)ccc1C | -0.0302 |
| CC(NC(=O)C1CCC1)c1ccccc1 (centres undefined) | 0.119 |
| N#CCCn1cc(C(=O)Nc2ccccc2Br)c(-c2cc3ccccc3o2)n1 | -0.0782 |
| C/C(N)=C(/C#N)C(=O)COC(=O)c1cc(-c2ccc(Br)cc2)nc2ccccc12 | 0.118 |
| O=C1CN(c2nc(-c3ccccc3)c3cc(Br)ccc3n2)c2ccccc2N1 | -0.78 |
| O=C(CCSc1nccn1Cc1ccccc1)N1CCOCC1 | -0.541 |
| CC1CCc2c(sc3nn[nH]c(=O)c23)C1 (centres undefined) | -0.322 |
| COc1cc(C(=O)NCc2cn3cccc(C)c3n2)cc(OC)c1OC | -0.0164 |
| COc1ccc(NC(=O)CSc2nnc(NC(=O)c3ccc(S(=O)(=O)N4CCOCC4)cc3)s2)cc1 | -0.163 |
| O=C(c1ccco1)N1CCN(S(=O)(=O)c2ccc(S(=O)(=O)NC3CCCC3)cc2)CC1 | -0.274 |
| O=C(COc1cc(O)c2c(=O)cc(-c3ccccc3)oc2c1)c1ccc(F)cc1 | -0.141 |
| CC1(C)CC(=O)C2=C(C1)c1c(ccc3ccccc13)NC2c1ccco1 (centres undefined) | -0.0447 |
| COc1ccc(/C=N/N=C/c2c[nH]c(=O)c(C#N)c2Nc2ccccc2)cc1 | -0.0461 |
| O=C(CSc1cccc[n+]1[O-])Nc1cc(S(=O)(=O)N2CCOCC2)ccc1N1CCOCC1 | 0.0306 |
| COC(=O)c1ccnc(/C=N/O)c1 | -0.26 |
| O=S(=O)(c1ccc2c(c1)OCCO2)N1CCC(n2nnc3cc(C(F)(F)F)ccc32)CC1 | -0.509 |
| COc1ccc(-c2cc(C(=O)Nc3cc(C)n(Cc4ccc(Cl)cc4)n3)no2)cc1OC | -0.883 |
| Cc1ccc(O)c(N=CC2=C(O)c3ccccc3C2=O)c1 | -0.233 |
| COc1ccc2[nH]c(=O)c(CN(CCO)C(=O)NCc3ccccc3)cc2c1 | -0.542 |
| Cc1ccccc1C(=O)NC(=S)NCC1CCCO1 (centres undefined) | 0.185 |
| CCOc1ccc(C(O)Cn2c(=N)n(CCN3CCCCC3)c3ccccc32)cc1 (centres undefined) | 1.65 |
| O=C(NNC(=O)c1cccnc1SCc1cccc([N+](=O)[O-])c1)c1ccccn1 | active: 3.29 |
| Cc1cc(/C=N/n2cnnc2)c(C)n1-c1cccc(C(=O)O)c1 | -0.692 |
| Nc1cc[n+](CC(=O)c2ccc3c(c2)OCCO3)cc1 | -0.0218 |
| COc1ccc(C(=O)NCCN2CCOCC2)cc1OC | -0.228 |
| O=C(C=C1CCN(c2ncc(C(F)(F)F)cc2Cl)CC1)NNC(=O)Nc1ccccc1 | -0.0967 |
| CCc1c(C)nc2ncnn2c1N1CCCC(C(=O)NCc2ccco2)C1 (centres undefined) | 0.301 |
| O=C(COC(=O)c1ccccc1NC(=O)c1ccco1)NCC1CCCCC1 | 0.0516 |
| O=C(Nc1cnc2ccccn2c1=O)c1ccc(F)cc1 | -0.0283 |
